Results from PubChem BioAssay AID488969 (Vanderbilt High Throughput Screening Facility, 2010).
In all, about 110,000 compounds were measured (“z-score”: median about -0.1, highest 2% from about 2 on). This is one part of the list. Activity calls are given as the source filed them.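 Rule for the calls: active = z-score in the third read window above 3 or below -3; inactive = the rest.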 Non-standard residues stand in square brackets, D forms with d. Residues, ends and D or L forms follow the SMILES beside them. ξ: configuration not given here. ξF = NC(Cc1ccccc1)C(=O)O

Biological target: Metabotropic glutamate receptor 8 (Rattus norvegicus) (UniProt P70579)
UniProt P70579, sequence (P70579 whole entry, looked up): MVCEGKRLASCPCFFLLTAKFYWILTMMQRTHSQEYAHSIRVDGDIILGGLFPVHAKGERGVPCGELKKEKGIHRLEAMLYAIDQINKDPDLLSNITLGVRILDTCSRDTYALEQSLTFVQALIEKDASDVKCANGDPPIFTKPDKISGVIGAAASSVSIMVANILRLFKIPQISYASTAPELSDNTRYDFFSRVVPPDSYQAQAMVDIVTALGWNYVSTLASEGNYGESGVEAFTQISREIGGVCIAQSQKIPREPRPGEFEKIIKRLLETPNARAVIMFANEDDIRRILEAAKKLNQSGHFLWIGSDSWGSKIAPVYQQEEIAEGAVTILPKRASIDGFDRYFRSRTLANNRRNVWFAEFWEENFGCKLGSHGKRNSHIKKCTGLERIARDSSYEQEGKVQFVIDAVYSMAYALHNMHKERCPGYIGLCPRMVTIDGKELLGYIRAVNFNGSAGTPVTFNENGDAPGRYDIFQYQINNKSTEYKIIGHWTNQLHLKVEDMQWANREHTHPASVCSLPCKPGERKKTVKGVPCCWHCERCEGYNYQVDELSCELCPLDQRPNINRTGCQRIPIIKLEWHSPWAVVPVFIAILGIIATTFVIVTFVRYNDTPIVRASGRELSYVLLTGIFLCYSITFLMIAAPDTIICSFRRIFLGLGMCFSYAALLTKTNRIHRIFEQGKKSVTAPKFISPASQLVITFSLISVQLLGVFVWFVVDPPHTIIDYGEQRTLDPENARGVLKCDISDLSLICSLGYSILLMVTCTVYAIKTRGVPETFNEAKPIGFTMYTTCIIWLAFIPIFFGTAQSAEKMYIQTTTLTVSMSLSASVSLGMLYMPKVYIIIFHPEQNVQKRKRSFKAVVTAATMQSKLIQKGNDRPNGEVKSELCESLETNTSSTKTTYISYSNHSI
Assay: mGluR8 Gi/Go-coupled signaling modulation – cell-based, rat, thallium flux, HTS, primary screen (AID 488969)
Settings: HEK293 rat mGluR8, GIRK (G protein-gated inwardly rectifying potassium channel) thallium flux, FluoZin2; at 10 µM; stronger effect = higher value; submaximal glutamate (EC20) added with thallium

| SMILES | z-score |
| --- | --- |
| O=C(O)CSc1nnc(CNc2ccccc2Cl)n1-c1ccccc1 | -0.237 |
| O=C(Cc1ccc(Cl)cc1)Nc1ccccc1N1CCOCC1 | -0.153 |
| O=C(Nc1nnc(-c2ccc3c(c2)CCCC3)o1)c1ccc(Cl)cc1Cl | active: 15.6 |
| O=C(Cn1nnc2ccccc2c1=O)NCc1ccco1 | 0.114 |
| Cc1cn(C(=O)C(C)N2C(=O)c3ccccc3C2=O)c(C)n1 (stereo unspecified) | -0.605 |
| CCN(CC)C(=O)CSc1nnc(CNc2ccc(F)cc2)n1Cc1ccco1 | -0.092 |
| O=C(CNC(=O)/C(=C/c1ccccc1)NC(=O)c1ccc(Br)cc1)OCc1ccccc1 | -0.0265 |
| CC1=NN(C(=O)c2ccc(Br)cc2)C(O)(C(F)(F)OC(F)(F)F)C1 (stereo unspecified) | -0.31 |
| COc1ccc(Cn2c(N)c(C#N)c3nc4ccccc4nc32)cc1 | -0.182 |
| CC(=O)Nc1ccc(S(=O)(=O)NC(C)C(=O)OCC(=O)NC2CCCC2)cc1 (stereo unspecified) | -0.107 |
| CCC(CC)C(=O)OCC(=O)NC12CC3CC(CC(C3)C1)C2 | -0.0127 |
| COc1ccc(OCc2n[nH]c(=S)o2)cc1 | -0.0823 |
| COCCCNC(=O)CCc1nc2cccnc2n1Cc1ccc(OC)cc1 | -0.209 |
| O=C(N/N=C/c1ccncc1)c1cccc(NC(=O)c2ccc(Cl)cc2)c1 | -0.428 |
| Cc1[nH]c2ccccc2c1C(O)CN1CCN(c2cccc(C(F)(F)F)c2)CC1 (stereo unspecified) | 0.495 |
| O=C(O)C1C2C=CC(C2)C1C(=O)N1CCc2ccccc21 (stereo unspecified) | -0.42 |
| C/C(CCc1oc2ccc(Cl)cc2c1-c1ccc(C)o1)=N\O | 1.93 |
| CCOc1ccc(-n2c(=S)sc3c(=O)[nH]c(SCC(=O)NC(C)CC)nc32)cc1 (stereo unspecified) | -0.859 |
| CCOC(=O)c1nc(Nc2ccc(C)cc2)c2ccccc2n1 | -1.02 |

| SMILES | z-score |
| --- | --- |
| CCn1ncc(C2C(C(=O)Nc3ccc(C)cn3)=C(C)NC3=C2C(=O)CCC3)c1C (stereo unspecified) | -0.378 |
| CCC/C(=N/Nc1ccc(Cl)cc1)c1cnnc(-c2ccccc2)n1 | -0.578 |
| Cc1ccc(S(=O)(=O)c2nc(NCCN(C)C)sc2Cl)cc1 | 1.67 |
| CSc1nc2ccccc2n1CC(=O)Nc1ccccc1 | 1.51 |
| Cc1nn(-c2ccccc2)c(Cl)c1C1C(C#N)=C(N)OC2=C1C(=O)CC(C)(C)C2 (stereo unspecified) | -0.29 |
| O=c1c2ccccc2nnn1CSc1nc2ccccc2[nH]1 | 0.194 |
| CN(CC(=O)Nc1ccc(S(=O)(=O)N2CCCC2)cc1)Cc1cccc(Cl)c1Cl | -0.0422 |
| COc1ccc(NC(=O)CSc2nnc(-c3cccnc3)o2)cc1 | 0.845 |
| O=C(CN(Cc1ccccc1)S(=O)(=O)c1ccc2c(c1)OCCO2)Nc1ccc2c(c1)OCCO2 | -0.803 |
| CCCOC(=O)c1ccc2c(c1)C(=O)N(c1ccccc1)C2=O | -0.411 |
| O=C(Nc1cccc(F)c1)c1cccc(S(=O)(=O)N2CCOCC2)c1 | 1.54 |
| CCOc1ccccc1N1CCN(C(=O)c2c(C)noc2C)CC1 | 0.356 |
| CCCCCCNC(=O)C(C(=O)OCC)C1CCCCC1 (stereo unspecified) | 0.494 |
| CCOc1cc(C(C#N)N2CCOCC2)ccc1OC (stereo unspecified) | 1.21 |
| COc1cccc(/C=N/c2oc(-c3ccccc3)cc2C#N)c1O | -0.279 |
| Cc1c(Br)c([N+](=O)[O-])nn1C(C)C(=O)NCc1cccs1 (stereo unspecified) | -0.152 |
| Cc1[nH]n(-c2ccc([N+](=O)[O-])cc2)c(=O)c1C=NCCc1c(C)[nH]c2ccccc12 | -0.0759 |
| CCOc1ccc(C(=O)NCc2cccs2)cc1 | 0.445 |
| CCCc1cc(-c2nc(-c3ccc(C)cc3)cs2)ccn1 | 0.113 |

| SMILES | z-score |
| --- | --- |
| CC(C)C(=O)Nc1ccc(-c2csc(-c3ccccc3)n2)cc1 | -0.165 |
| Cc1ccc(N2CC(C(=O)Nc3nccs3)CC2=O)cc1Cl (stereo unspecified) | -0.934 |
| CCC1(C)C2(C#N)C(N)=NC(OC)(OC)C12C#N (stereo unspecified) | -0.0981 |
| Cn1c(SCC(=O)N2CCOCC2)nnc1-c1ccccc1 | -0.153 |
| Cc1ccc2c(c1)C=CC(C)N2C(=O)c1ccccc1 (stereo unspecified) | -0.877 |
| Cc1c(N=Cc2ccccn2)c(=O)n(-c2ccccc2)n1C | -0.342 |
| Cc1oc(=O)c(NC(=O)c2ccccc2)cc1C(=O)c1ccccc1 | -0.469 |
| CC(C(=O)Nc1ccccc1-c1ccccc1)N1CCOCC1 (stereo unspecified) | -0.125 |
| CC(=O)NCC(=O)NC(Cc1ccccc1)C(N)=O (stereo unspecified) (Ac-Gly-[ξF]-NH2) | -0.919 |
| Cc1cc(C)n(-c2nc3c(c(=O)[nH]c(=O)n3C)n2Cc2ccc(F)cc2)n1 | 0.0308 |
| CCCN1C(=O)c2ccccc2NC1c1cc(OC)c(OC)c(OC)c1 (stereo unspecified) | 0.194 |
| CCCCOCCCNC(=O)Cc1cccs1 | -1.05 |
| CC(=O)Nc1ccc(C(=O)NC2CCCC2)cc1 | -0.0856 |
| CCn1c2ccccc2c2nnc(NN)nc21 | -0.81 |
| CN(C)C(=O)CCCc1nc(-c2ccc(Cl)cc2)no1 | -0.0842 |
| COc1ccc(-n2c(Cc3cccn3C)nnc2SCC(=O)NCCc2ccccc2)cc1 | -0.482 |
| Cc1ccccc1-n1c(C)nnc1SCc1cc(=O)oc2ccc3ccccc3c12 | 0.0722 |
| O=C(Cc1ccccc1)NN1C(=O)C2C(C1=O)C1C=CC2C12CC2 (stereo unspecified) | -0.165 |
